From PubChem BioAssay AID463173 (ICCB-Longwood Screening Facility, Harvard Medical School, 2010) come the findings set out here.

The structures appear in SMILES notation. Among all 52,000 compounds or so, about 4,300 (8.3%) were called active. No stated cut-off is given here; in the data, active means survival mostly below about 52% (no sharp cut-off); inactive means mostly above about 56%. The list shows a part of the results.

The subject of this experiment is DeltatarO mutant. The experiment in a line: growth inhibition of S. aureus wild type versus tarO mutant, primary screen, teichoic acid synthesis inhibitors, RN4220, OD600 (AID 463173). The settings on record: OD600, 18 h, hits give low values, screened at 18.75 µg/mL (by protocol).
Consider `COc1ccc(OC)c(CNC(=O)c2cccc(NC(=O)N3CCSc4ncccc43)c2)c1`, for which the survival was inactive: 86%. As for `CC(C)Sc1ncc(Cl)c(C(=O)Nc2ccc(S(=O)(=O)N3CCCCC3C)cc2)n1` (stereo not drawn), the figure is inactive: 94%. As for `O=c1c2oc3ccccc3c2n(Cc2cccc(C(F)(F)F)c2)c(=O)n1Cc1ccc2c(c1)OCO2`, the figure is inactive: 108%; as for `CCC(C(=O)NCc1ccccc1)n1ncn2c(cc3occc32)c1=O` (stereo not drawn), inactive: 91%; as for `CCC(=O)N1CCN(c2ccc(NC(=O)c3ccccc3)cc2)CC1`, inactive: 85%. As for `CCOC(=O)c1ccc2ncc(C(=O)OCC)c(Nc3ccc(C)c(Br)c3)c2c1`, the figure is active: 39%; as for `Cc1cccc(C(=O)Nc2cccc(C(=O)OCc3cc(=O)n4ccsc4n3)c2)c1`, inactive: 66%. `Cc1cc(C(F)F)n2nc(C(=O)Nc3ccc(C)c(C)c3)nc2n1`: the survival was inactive: 99%. As to `COc1ccc(Br)cc1CNC(=O)CN1C(=O)CSc2ccc(S(=O)(=O)N3CCOCC3)cc21`, the survival was inactive: 75%. Take `Cc1ccc(NC(=O)c2cc3c(=O)n(Cc4cccnc4)ccc3nc2C)cc1F`: the survival is inactive: 92%.

With `Cn1c(CNc2nc(-c3ccccc3)cs2)nnc1SCC(=O)c1ccccc1`, the survival was active: 51%. On to `COc1ccc(OC(C)C(=O)NCc2nc(-c3ccc(Cl)cc3)no2)cc1` (stereo not drawn), for which the survival is inactive: 75%. For `CN(C)c1ccc(/C=C(/NC(=O)c2ccccc2)C(N)=O)cc1` the value was inactive: 86%; for `c1cc(N2CCOCC2)ccc1Nc1nc2nonc2nc1Nc1ccc(N2CCOCC2)cc1`, inactive: 100%. On to `Cc1ccc(NC(=O)Cn2cc(S(=O)(=O)N3CCCC3)c(S(=O)(=O)N3CCCC3)c2)c(C)c1`, for which the survival is inactive: 94%. For `O=C(O)CN1C(=O)c2ccc(Oc3ccc4c(c3)C(=O)N(CC(=O)O)C4=O)cc2C1=O` the value was inactive: 90%.

In the case of `O=C(NCCc1ccc(Cl)cc1)c1cccn1-c1nnc(N2CCCC2)s1`, the survival is inactive: 124%. On to `C=CCNC(=O)CN1C(=O)COc2ccccc21`, for which the survival is inactive: 100%. For `O=C(c1cccnc1Nc1cccc(Cl)c1)N1CCCCC1`, the survival is inactive: 108%. As for `COc1ccc(C(=O)c2cn(CC(=O)Nc3ccc4c(c3)OCO4)c3ccc(OC)cc3c2=O)cc1`, the figure is inactive: 76%; as for `CCOc1ccccc1N(C)C(=O)NCc1noc2ccccc12`, inactive: 108%. For `CCOc1ccccc1NS(=O)(=O)c1ccc2oc(=O)c3ncn(C)c3c2c1` the value was inactive: 77%.

`O=C(N/N=C/c1ccc(O)cc1)Nc1cccc2nsnc12`: the survival is inactive: 92%.

With `Cc1cccc(OCC(=O)Nc2ccc3c(c2)N(C)C(=O)c2ccccc2S3)c1`, the survival was inactive: 73%. For `CCCn1ccc2c(OCC(=O)Nc3ccc(F)cc3F)cccc2c1=O` the value was inactive: 102%; for `Cc1cccc(NC(=O)CSc2nc3c([nH]c4ccccc43)c(=O)n2-c2ccc(F)cc2)c1C`, inactive: 49%.

As for `Cc1ccc(C(=O)N/C(=C\c2cn(S(=O)(=O)N(C)C)c3ccccc23)C(=O)NCCCn2ccnc2)cc1`, the survival is inactive: 80%. Consider `COc1ccc(NC(=O)c2ccco2)cc1NC(=O)COc1ccccc1Cl`, for which the survival is inactive: 71%. For `O=C(Cc1cccs1)NC1CCCCCC1` the value was inactive: 92%; for `COc1ccc(C(=O)N2CCC(C(=O)Nc3ccccc3Cl)CC2)cc1`, inactive: 78%.

Take `CCc1ccccc1NC(=O)c1cc(S(=O)(=O)NC2CCCC2)ccc1F`: the survival is inactive: 89%. For `COC(=O)CSc1nc(N2CCOCC2)nc(N2CCOCC2)n1` the value was inactive: 104%. In the case of `CCOc1ccc(NC(=O)CC2C(=O)N(c3cccc(C)c3)C(=O)N2Cc2ccco2)cc1` (stereo not drawn), the survival is inactive: 83%.

Consider `COc1ccc(-c2cc(C(F)(F)F)n3nc(C(=O)Nc4sc5c(c4C#N)CCC(C)C5)cc3n2)cc1OC` (stereo not drawn), for which the survival is inactive: 99%. For `O=C1CC(N2CCC(c3nc4ccccc4[nH]3)CC2)C(=O)N1` (stereo not drawn) the value was inactive: 84%; for `CCOC(=O)C1CCN(C(=O)c2cc3ccc4ccc(C)[nH]c4c3n2)CC1`, inactive: 67%; for `CCC(C)NC(=O)c1[nH]c2cc(OC)ccc2c1Sc1ccc(C)cc1` (stereo not drawn), inactive: 82%. As for `CC(CNC(=O)CN1C(=O)COc2ccc(S(=O)(=O)N3CCCCC3)cc21)c1ccccc1` (stereo not drawn), the figure is inactive: 85%; as for `CC(/C=C/c1ccco1)=N/NC(=O)Cc1cccs1`, inactive: 97%. As for `Cc1ccc(-n2ncc(C(=O)NCCCN3CCc4ccccc4C3)c2C2CCN(C(=O)OC(C)(C)C)CC2)cc1C`, the survival is inactive: 73%. For `Cc1ccccc1C(=O)Nc1ccc(C(=O)OCc2cc(=O)n3nc(C4CC4)sc3n2)cc1` the value was inactive: 79%; for `O=C(Nc1ccc(Cl)cc1)C1CCN(S(=O)(=O)c2ccc(Br)s2)CC1`, active: 47%; for `CN(CC(=O)NCc1ccccn1)S(=O)(=O)c1ccccc1`, inactive: 96%.

`CC1CN(C(=O)Nc2ccc(C(=O)NCCc3ccccc3Cl)cc2)c2ccccc2S1` (stereo not drawn): the survival is inactive: 61%. In the case of `CCC1CN(C(=O)N2CCC(C(=O)N(C)Cc3ccccc3)CC2)c2ccccc2O1` (stereo not drawn), the survival is inactive: 72%. For `Cc1ccc(CNC(=O)c2cc(S(=O)(=O)N3CCCCC3)cn2C)cc1` the value was inactive: 69%; for `Cc1ccc2nc(CN3CCN(C(=O)Nc4cccc(C)c4C)CC3)oc2c1`, inactive: 83%; for `COc1ccc(NC(=O)CN2C(=O)CC(c3ccco3)Sc3ccccc32)cc1OC` (stereo not drawn), inactive: 83%. As for `COC(=O)c1scc(-c2ccc(C)cc2)c1S(=O)(=O)Nc1c(C)cc(C)cc1C`, the figure is inactive: 124%.

On to `Cc1nc2c(-c3ccccc3)c(C)[nH]n2c(=O)c1Cc1ccc(C(C)C)cc1`, for which the survival is active: 11%.

In the case of `CCS(=O)(=O)c1ncc(N(Cc2cccc(F)c2)Cc2ccco2)c(C(=O)Nc2ccccc2Cl)n1`, the survival is inactive: 64%. Consider `CCOC(=O)c1cccc(NC(=O)c2cnn(-c3ccccc3)c2-n2cccc2)c1`, for which the survival is inactive: 80%. For `O=C(CSCc1cc(=O)c2ccccc2[nH]1)Nc1cccc(C(F)(F)F)c1` the value was inactive: 123%; for `CC(=O)c1ccc(N2CCN(S(=O)(=O)c3ccc4[nH]c5c(c4c3)CCCCC5)CC2)cc1`, inactive: 91%; for `CC(=O)N1c2ccccc2C(=O)C1N1CCN(c2cc(Cl)ccc2C)CC1` (stereo not drawn), inactive: 90%. For `CCC1CN(C(=O)Nc2ccccc2C(F)(F)F)c2ccccc2S1` (stereo not drawn) the value was inactive: 116%; for `O=C(CSc1nnnn1-c1ccc2c(c1)OCCO2)c1ccc2c(c1)OCCO2`, inactive: 68%. Consider `CCCCS(=O)CC(O)CSc1nc(-c2ccc(OC)cc2)cc(-c2ccccc2)c1C#N` (stereo not drawn), for which the survival is inactive: 51%. As for `Cc1ccc(/C=C/c2onc(C)c2S(=O)(=O)N2CCC(C(=O)NCc3ccc(N(C)C)cc3)CC2)cc1`, the survival is inactive: 67%. As for `COc1ccc(NC(=O)CN(c2ccc(C)cc2)S(=O)(=O)c2cccs2)cc1OC`, the figure is inactive: 97%; as for `CCC(Sc1nnc(-c2ccc(OC)cc2)c(-c2ccc(OC)cc2)n1)C(=O)Nc1cccc(OC)c1` (stereo not drawn), inactive: 94%. On to `Fc1ccccc1N1CCN(c2c3c(nc4nncn24)CCC3)CC1`, for which the survival is inactive: 81%. For `Cn1ncc2c(N3CCN(c4ccccc4Cl)CC3)ncnc21` the value was inactive: 122%; for `CCOc1ccccc1NC(=O)CCNS(=O)(=O)c1ccc2c(c1)CCN2C(=O)C1CC1`, inactive: 81%. For `Cc1cccc(C(=O)Nc2nnc(SCc3cc(=O)n4cccc(C)c4n3)s2)c1`, the survival is inactive: 79%. As for `O=C(Cc1ccc(Cl)cc1)NCC(c1cccs1)S(=O)(=O)c1ccc(Cl)cc1` (stereo not drawn), the figure is inactive: 85%; as for `O=C(CSc1nnc(-c2ccccc2F)o1)N1CCc2ccccc21`, inactive: 100%; as for `COc1ccc(C(=O)N/C(=C\c2cn(S(=O)(=O)N(C)C)c3ccccc23)C(=O)NCCCn2ccnc2)cc1`, inactive: 85%. As to `CN(Cc1ccccc1)C(=O)C1CCN(Cc2cc3ccccc3n2Cc2ccccc2)CC1`, the survival is inactive: 79%. For `COc1ccccc1NC(=O)c1sc2nc(-c3cc4ccccc4oc3=O)[nH]c(=O)c2c1C` the value was inactive: 106%. For the compound `Cc1cc(C)cc(NC(=O)c2cccc(N3CCCS3(=O)=O)c2)c1`, the survival was inactive: 101%. For `O=C(CSc1n[nH]c(-c2ccccc2)n1)c1cccs1` the value was inactive: 81%; for `C=CCn1c(N2CCC(C(N)=O)CC2)nc2c1c(=O)n(C)c(=O)n2C`, inactive: 94%; for `O=C(Nc1ccc2oc(-c3cccc4c(Br)cccc34)nc2c1)c1ccc(F)cc1`, inactive: 80%.

With `Cc1ccc(C(C(=O)NC2CCCCC2)N(C(=O)C2COc3ccccc3O2)c2ccc3c(c2)OCO3)o1` (stereo not drawn), the survival is inactive: 77%. For `CCc1ccc2[nH]c(=O)c(CN(CCO)C(=S)NCc3ccco3)cc2c1` the value was inactive: 88%; for `CCCCN(C)CCNC(=O)c1ccc2c(=O)n(CCc3ccccc3)c(=O)[nH]c2c1`, inactive: 77%; for `CCc1ccc(NC(=O)C(NS(=O)(=O)c2cccs2)C(C)C)cc1` (stereo not drawn), active: 55%. `Cn1c(=O)c2c(-c3ccccc3)n3c(c2n(C)c1=O)C(c1ccccc1[N+](=O)[O-])Nc1ccccc1-3` (stereo not drawn): the survival was inactive: 79%. For `CCOC(=O)c1sc(N(C)C(C)=O)nc1C` the value was inactive: 103%; for `Cc1ccc(-c2nc3nc(C)cc(N4CCN(c5cc(Cl)ccc5C)CC4)n3n2)cc1`, inactive: 86%; for `COc1ccc(-c2cc(C(=O)Oc3ccccc3)c3cc(C)ccc3n2)cc1`, active: 9%. Regarding `CCn1c(=O)n(-c2ccc(C)c(F)c2)c(=O)c2sc3ccccc3c21`, the survival is inactive: 76%. Regarding `COc1cccc(-n2c(SCC(=O)Nc3cc(C)ccc3C)nc3c(oc4ccccc43)c2=O)c1`, the survival is inactive: 75%. Turning to `CCOCCCNC(=O)c1ccc2nc(CCc3ccccc3)oc2c1`, the survival was inactive: 58%. As for `COc1ccc(C2=NC3(CCCCC3)N(CC(=O)Nc3ccc(C(C)C)cc3)C2=O)cc1`, the figure is inactive: 78%; as for `CCOC(=O)c1oc2ccc(S(=O)(=O)n3nc(-c4ccccc4OC)cc3N)cc2c1C`, inactive: 67%. Regarding `O=C(COC(=O)c1cc(-c2cccs2)nc2ccccc12)c1ccccc1`, the survival is inactive: 45%.
